Patent US20250353891A1 (MEDIMMUNE LIMITED, priority 2022, published 2025)
Like-named read-outs stand apart in the source and are kept apart here. Part of at least one peptide drawing is inferred or uncertain, most often the ends. At least one structure is not confirmed: it was looked up by name or label, or the drawing left a doubt. Starred links: 1 amine or outer side, 2 acyl side, 3 side chain; linkers in the order of their positions; H or OH if unused. Non-standard residues stand in square brackets, D forms with d. Residues, ends and D or L forms follow the SMILES beside them. Groups on a side chain read outwards from the residue. *: point of attachment. C18 diacid = O=C(O)CCCCCCCCCCCCCCCCC(=O)*; Heptadecanoyl = CCCCCCCCCCCCCCCCC(=O)*; γGlu = O=C(O)[C@H](CCC(=O)[*:2])N[*:1]; αMeF = C[C@](N)(Cc1ccccc1)C(=O)O; PEG2 = NCCOCCOCCC(=O)O; AEEA = NCCOCCOCC(=O)O; Aib = CC(C)(N)C(=O)O

Assays:
[1] = target: human glucagon receptor (hGCGR) (Homo sapiens, UniProt P47871); assay: cAMP production (HTRF) in CHO cells expressing hGCGR; format: cell-based; set-up: expressed in transfected cells; settings: cAMP in CHO hGCGR cells, geometric mean, read-out: hGluc-R EC50
Protocol: (§1) Cells were re-suspended in assay buffer at a batch-dependent optimized concentration (typically hGLP-1R cells at 1×10^5 cells/mL, hGCGR cells at 2×10^5 cells/mL).
(§2) Cells were added to the assay plate using a multidrop dispenser and incubated at room temperature for 30 minutes before measuring the cAMP level using a cAMP dynamic 2 homogeneous time resolved Fluorescence (HTRF) kit (Cisbio Bioassays #62AM4PEJ) following the two-step protocol as per manufacturer's recommendations. In brief, anti-cAMP cryptate (donor fluorophore) and cAMP-d2 (acceptor fluorophore) were made up separately by diluting each 1 in 20 in conjugate and lysis buffer provided in the kit. Anti-CAMP cryptate was added to all wells of the assay plate, followed by cAMP-d2 added to all wells except non-specific binding (NSB) wells (to which conjugate and lysis buffer was added).
(§3) Data was transformed to % Delta F as described in the manufacturer's guidelines and analyzed by 4-parameter logistic fit to determine EC50 values.

[2] = target: human GLP-1 receptor (hGLP-1R) (Homo sapiens, UniProt P43220); assay: cAMP production (HTRF) in CHO cells expressing hGLP-1R; format: cell-based; set-up: expressed in transfected cells; settings: for EC50: cAMP in CHO hGLP-1R cells, geometric mean
Protocol: as §1, §2, §3

[3] = Table 6, peptides modified at position 17
[4] = Table 7, peptides modified at position 20

human GLP-1 receptor (hGLP-1R), sequence (P43220 24-463): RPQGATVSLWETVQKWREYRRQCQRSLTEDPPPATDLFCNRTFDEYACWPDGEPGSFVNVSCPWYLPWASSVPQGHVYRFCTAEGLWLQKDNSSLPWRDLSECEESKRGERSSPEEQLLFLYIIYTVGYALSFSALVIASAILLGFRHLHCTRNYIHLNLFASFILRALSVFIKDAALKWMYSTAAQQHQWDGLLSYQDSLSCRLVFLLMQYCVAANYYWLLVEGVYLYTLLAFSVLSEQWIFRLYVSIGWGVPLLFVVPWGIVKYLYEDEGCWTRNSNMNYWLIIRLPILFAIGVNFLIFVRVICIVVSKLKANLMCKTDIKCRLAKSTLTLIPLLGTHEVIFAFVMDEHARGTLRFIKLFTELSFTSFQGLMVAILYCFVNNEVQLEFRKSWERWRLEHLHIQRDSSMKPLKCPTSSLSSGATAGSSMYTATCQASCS
human glucagon receptor (hGCGR), sequence (P47871 26-477): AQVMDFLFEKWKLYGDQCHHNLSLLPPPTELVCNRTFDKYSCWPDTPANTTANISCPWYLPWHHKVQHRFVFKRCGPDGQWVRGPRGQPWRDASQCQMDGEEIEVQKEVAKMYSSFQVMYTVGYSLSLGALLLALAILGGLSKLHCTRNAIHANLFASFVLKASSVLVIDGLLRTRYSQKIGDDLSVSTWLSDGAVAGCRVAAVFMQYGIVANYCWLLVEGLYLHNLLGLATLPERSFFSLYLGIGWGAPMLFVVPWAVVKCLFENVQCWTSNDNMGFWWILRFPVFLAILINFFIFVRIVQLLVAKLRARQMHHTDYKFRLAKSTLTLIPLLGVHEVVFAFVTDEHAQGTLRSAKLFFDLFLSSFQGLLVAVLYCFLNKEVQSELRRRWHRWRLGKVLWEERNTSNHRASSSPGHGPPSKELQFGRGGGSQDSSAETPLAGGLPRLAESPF

Compound	EC50 [1, 3] [nM]	EC50 [2, 3] [nM]	EC50 [1, 4] [nM]	EC50 [2, 4] [nM]	% Relative Potency Ratio ([2]; Table 6, % GLP-1R activity relative to GLP-1 / % GlucR activity relative to glucagon)
CC(C)C[C@H](NC(=O)[C@H](Cc1c[nH]c2ccccc12)NC(=O)[C@H](CCCNC(=N)N)NC(=O)[C@@H](NC(=O)[C@H](Cc1ccccc1)NC(=O)[C@H](CC(=O)O)NC(=O)[C@H](CCC(N)=O)NC(=O)[C@H](C)NC(=O)[C@H](CCCNC(=N)N)NC(=O)[C@H](CCCCNC(=O)COCCOCCNC(=O)COCCOCCNC(=O)CC[C@H](NC(=O)CCCCCCCCCCCCCCCCC(=O)O)C(=O)O)NC(=O)[C@H](CO)NC(=O)[C@H](CC(=O)O)NC(=O)[C@H](CC(C)C)NC(=O)[C@](C)(Cc1ccccc1)NC(=O)[C@H](CCCCN)NC(=O)[C@H](CO)NC(=O)[C@@H](NC(=O)[C@H](CC(=O)O)NC(=O)[C@H](CO)NC(=O)[C@@H](NC(=O)[C@H](Cc1ccccc1)NC(=O)[C@@H](NC(=O)CNC(=O)[C@H](CCC(N)=O)NC(=O)C(C)(C)NC(=O)[C@@H](N)Cc1c[nH]cn1)[C@@H](C)O)[C@@H](C)O)C(C)C)C(C)C)C(=O)N[C@@H](CC(C)C)C(=O)NC(C)(C)C(=O)N[C@H](C(=O)N[C@@H](CCCCN)C(=O)O)[C@@H](C)O [Peptide 177]	0.306	0.0238			
CC[C@H](C)[C@H](NC(=O)[C@H](Cc1c[nH]c2ccccc12)NC(=O)[C@H](C)NC(=O)[C@@H](NC(=O)[C@](C)(Cc1ccccc1)NC(=O)[C@H](CC(=O)O)NC(=O)[C@H](CCCCNC(=O)COCCOCCNC(=O)COCCOCCNC(=O)CC[C@H](NC(=O)CCCCCCCCCCCCCCCCC(=O)O)C(=O)O)NC(=O)[C@H](C)NC(=O)[C@H](C)NC(=O)[C@H](CCCNC(=N)N)NC(=O)[C@H](CO)NC(=O)[C@H](CC(=O)O)NC(=O)[C@H](CC(C)C)NC(=O)[C@](C)(Cc1ccccc1)NC(=O)[C@H](CCCCN)NC(=O)[C@H](CO)NC(=O)[C@@H](NC(=O)[C@H](CC(=O)O)NC(=O)[C@H](CO)NC(=O)[C@@H](NC(=O)[C@](C)(Cc1ccccc1)NC(=O)[C@H](CO)NC(=O)CNC(=O)[C@H](Cc1c[nH]cn1)NC(=O)C(C)(C)NC(=O)[C@@H](N)Cc1c[nH]cn1)[C@@H](C)O)C(C)C)[C@@H](C)CC)C(=O)N[C@@H](C)C(=O)N[C@@H](CC(N)=O)C(=O)N[C@H](C(N)=O)[C@@H](C)O [Peptide 230] (H-H[Aib]HGS[αMeF]TSDVSK[αMeF]LDSRAAK([AEEA-AEEA-γGlu-C18 diacid])D[αMeF]IAWIANT-NH2)			0.0371	0.17	
CCCCCCCCCCCCCCCCC(=O)N[C@@H](CCC(=O)N[C@@H](CCC(=O)NCCOCCOCCC(=O)NCCOCCOCCC(=O)NCCCC[C@H](NC(=O)[C@H](CO)NC(=O)[C@H](CC(=O)O)NC(=O)[C@H](CC(C)C)NC(=O)[C@](C)(Cc1ccccc1)NC(=O)[C@H](CCCCN)NC(=O)[C@H](CO)NC(=O)[C@@H](NC(=O)[C@H](CC(=O)O)NC(=O)[C@H](CO)NC(=O)[C@@H](NC(=O)[C@](C)(Cc1ccccc1)NC(=O)[C@H](CO)NC(=O)CNC(=O)[C@H](CCC(N)=O)NC(=O)[C@H](CO)NC(=O)[C@@H](N)Cc1c[nH]cn1)[C@@H](C)O)C(C)C)C(=O)N[C@@H](C)C(=O)N[C@@H](C)C(=O)N[C@@H](CCC(N)=O)C(=O)N[C@@H](CC(=O)O)C(=O)N[C@@](C)(Cc1ccccc1)C(=O)N[C@H](C(=O)N[C@@H](CCC(N)=O)C(=O)NC(C)(C)C(=O)N[C@@H](CC(C)C)C(=O)N[C@@H](CCC(=O)O)C(=O)N[C@@H](C)C(=O)NCC(=O)NCC(N)=O)C(C)C)C(=O)O)C(=O)O [Peptide 80] (H-HSQGS[αMeF]TSDVSK[αMeF]LDSK([PEG2-PEG2-γGlu-γGlu-Heptadecanoyl])AAQD[αMeF]VQ[Aib]LEAGG-NH2; N-terminus assumed)	0.00918	0.00103			17.6
